Experimental data: the supplement of paper PMC9990464
Where a name gives a salt, the structure may show the parent alone. Some of the results follow. Most values come without repeats; read them as rough.

Test system: SKNBE
Assay: area under viability curve (10 nM-1 µM), viability relative to solvent or trametinib-only control (AUC (arbitrary, % viability x concentration range)); higher = less growth inhibition (more viable cells)
Details: 72 h compound exposure (96 h after seeding) h; trametinib co-treatment 0 µM
Procedure: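 Four neuroblastoma cell lines (KCNR, SKNBE, SJNB8, SKNAS) were seeded in 384-well plates. At 24 h, 1 µM trametinib or DMSO was added, followed by library compounds at 10 nM, 100 nM and 1 µM. Viability was read by MTT at 96 h and normalised to solvent-treated cells (DMSO arm) or to trametinib-only cells (trametinib arm). The area under the 3-point viability curve was computed in GraphPad Prism; units are as given (approx. 100000 = no effect).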
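Also: KCNR is a neuroblastoma cell line carrying an ALK mutation, in this DMSO arm without trametinib, viability was normalised to solvent-treated cells.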

Compound | area under viability curve
CC1(C)CNc2cc(NC(=O)c3cccnc3NCc3ccncc3)ccc21 [Motesanib] | 119000
CC(C)[C@H](O)C(=O)N[C@@H](C)C(=O)N[C@@H]1C(=O)N(C)CCc2ccccc21 [Semagacestat] | 109000
CCOc1cc2ncc(C#N)c(Nc3ccc(OCc4ccccn4)c(Cl)c3)c2cc1NC(=O)/C=C/CN(C)C [Neratinib] | 69000
Cc1cccn2c(=O)c(C=C(C#N)c3nc4ccccc4s3)c(Oc3ccc(F)cc3)nc12 | 96400
N.N.O=C([O-])C[O-].[Pt+2] [Nedaplatin] | 95500
Cc1cc(Nc2cc(N3CCN(C)CC3)nc(Sc3ccc(NC(=O)C4CC4)cc3)n2)n[nH]1 [Tozasertib] | 56200
CC(=O)Nc1ccc(C(=O)Nc2ccccc2N)cc1 [Tacedinaline] | 106000
C=C(C)[C@@H](CC=C(C)C)C[C@@]12C[C@@H](CC=C(C)C)C(C)(C)[C@@](CC=C(C)C)(C(=O)C(C(=O)c3ccc(O)c(O)c3)=C1O)C2=O [Garcinol] | 92600
CNC(=O)c1ccc(N2C(=S)N(c3ccc(C#N)c(C(F)(F)F)c3)C(=O)C2(C)C)cc1F [Enzalutamide] | 104000
CN1CC[C@H](c2c(O)cc(O)c3c(=O)cc(-c4ccccc4Cl)oc23)[C@H](O)C1 [Flavopiridol] | 31900
CC(C)C1O[C@H](CN)[C@@H](CN)O1.O=C([O-])CC(=O)[O-].[Pt+2] [Eptaplatin] | 104000
Nc1nc(OCc2ccccc2)c2nc[nH]c2n1 [O6-Benzylguanine] | 114000
CC(=O)O[C@H]1C(=O)[C@@]2(C)[C@H]([C@H](OC(=O)c3ccccc3)[C@]3(O)C[C@H](OC(=O)[C@H](O)[C@@H](NC(=O)c4ccccc4)c4ccccc4)C(C)=C1C3(C)C)[C@]1(OC(C)=O)CO[C@@H]1C[C@@H]2O [7-epi-Taxol] | 42400
C[C@]1(c2nc3c(C(N)=O)cccc3[nH]2)CCCN1 [Veliparib] | 110000
COc1cc2c(Oc3ccc4[nH]c(C)cc4c3F)ncnc2cc1OCCCN1CCCC1 [Cediranib] | 69900
O=Nc1ccc(O)c2ncccc12 | 102000
Cc1ccc(NC(=O)c2ccc(CN3CCN(C)CC3)cc2)cc1Nc1nccc(-c2cccnc2)n1 [Imatinib mesylate] | 102000
CCc1c2c(nc3ccc(O)cc13)-c1cc3c(c(=O)n1C2)COC(=O)[C@]3(O)CC [7-Ethyl-10-hydroxycamptothecin] | 22600
O=C1c2c(O)ccc(O)c2C(=O)c2c(NCCNCCO)ccc(NCCNCCO)c21 [Mitoxanthrone HCl] | 48500
CC(C)(C)c1nc(-c2cccc(NS(=O)(=O)c3c(F)cccc3F)c2F)c(-c2ccnc(N)n2)s1 [Dabrafenib] | 107000
CC(=O)[O-].CC(=O)[O-].N.NC1CCCCC1.[Cl-].[Cl-].[Pt+4] [Satraplatin] | 82200
COc1cc2c(cc1OC)CN(CCc1ccc(NC(=O)c3cc(OC)c(OC)cc3NC(=O)c3cnc4ccccc4c3)cc1)CC2 [Tariquidar] | 107000
CC1(C)CCC(CN2CCN(c3ccc(C(=O)NS(=O)(=O)c4ccc(NCC5CCOCC5)c([N+](=O)[O-])c4)c(Oc4cnc5[nH]ccc5c4)c3)CC2)=C(c2ccc(Cl)cc2)C1 [Venetoclax] | 87800
CN(C)C(=O)c1cc2cnc(Nc3ccc(N4CCNCC4)cn3)nc2n1C1CCCC1 [Ribociclib] | 69100
O=C(CCCN1C(=O)c2cccc3cccc(c23)C1=O)NO [Nullscript] | 99100
C=C1C(=O)O[C@@H](CCC)[C@@H]1C(=O)O [Butyrolactone 3] | 105000
O=c1[nH]c(=O)n(C2CCCO2)cc1F (stereo not given) [Tegafur] | 108000
C#Cc1cccc(Nc2ncnc3cc(OCCOC)c(OCCOC)cc23)c1 [Erlotinib mesylate] | 99000
CC(C)C[C@H](NC(=O)[C@@H](Cc1c[nH]c2ccccc12)NC(=O)[C@H](Cc1ccc(O)cc1)NC(=O)[C@H](CO)NC(=O)[C@H](Cc1c[nH]c2ccccc12)NC(=O)[C@H](Cc1cnc[nH]1)NC(=O)[C@@H]1CCC(=O)N1)C(=O)N[C@@H](CCCN=C(N)N)C(=O)N1CCC[C@H]1C(=O)NCC(N)=O [Triptorelin acetate] | 80900
CC[C@@]1(O)C(=O)OCc2c1cc1n(c2=O)Cc2cc3cc(O)ccc3nc2-1 [10-Hydroxycamptothecin] | 21900
